Some of the results follow.
test system: PF3D7_0420300 AP2 domain 1 (GST-tagged); experiment: gcPBM binding intensity (ln(normalized median fluorescence intensity)); higher = stronger DNA binding
Procedure, shortened: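 Probes on an Agilent 4 × 180k array were primer-extended, double-stranded and 36 bp long, taken from intergenic genomic regions, with negative controls added. GST-tagged P. falciparum DNA-binding domains from E. coli, about 25 μg on average, were applied to the array for 1 h in 1× PBS containing 1% milk, 0.2 mg/ml BSA, 0.5% salmon testes DNA and 0.03% Triton X-100. Binding intensity, obtained after Alexa488 anti-GST antibody detection and a 488 nm scan, is the highest Masliner-normalised natural-log median intensity across replicate spots of either probe orientation.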

| Sequence | gcPBM binding intensity (ln) |
| --- | --- |
| ATGTAGAAGTAATGCACACATATGTATATATATATA [CACACA_site2494] | 9.62 |
| GGTCTTTTTATGATATGTACTTATATAATATTATAT [XGTACX_site6458] | 9.59 |
| AACAGCATGAAGTAAAGTACTAGTTTTATTTATTTA [XGTACX_site1116] | 9.1 |
| AGGAAATTTTTTTTTTTTTTTTTTTTTTTTTTTTAC [TGCATGCA_negctrl_site170] | 8.71 |
| ATAATATATAATATAGTGCATTATTTATTAATTAAT [GTGCAC_site9852] | 9.16 |
| ATAGATGTCTTCATATGTACATAAATTCAAGTATAT [XGTACX_site7492] | 9.05 |
| TGATTATAAAAGTAGGTGCTACAAAAATTACACATT [GTGCAC_site9530] | 9.19 |
| TGATAAGTATACTAAAGTACATGAAAAATAACTTCC [XGTACX_site6908] | 9.24 |
| TCCTAATGGTTTAATTGTACAAAAAAAAAAAATATA [XGTACX_site322] | 8.85 |
| CAAAATATTATGAATTGTACATATTTTAAAACGTTT [XGTACX_site1614] | 9.15 |
| TATATATAATATGAATGTACACAAAAAGGTAATACA [XGTACX_site6202] | 9.46 |
| AAAAAAAAGAAATAGACACACATATATTTTTAAACA [CACACA_site3954] | 9.45 |
| TATAATTTTTTTGAATTATATATATATATATATAAT [XGTACX_negctrl_site26] | 8.86 |
| TGATATAAAATTAAAGTGCAAAAAAAAAATAAAAAA | 9.39 |
| ATAATATTATGAACCTGTACATAATTTTTCTTTTCT [XGTACX_site3377] | 9.09 |
| AGTATATTTCTAACTTGTACGAAATTAATAATTTAT [XGTACX_site6635] | 9.06 |
| ACAGCTCTAGGACATGCATGTTATATAGAAAAAGAG [TGCATGCA_site703] | 9.16 |
| TTCTTTATATAAACAAGTACATATAAAATACATATA [XGTACX_site8036] | 9.02 |
| AAGTTAATGTTTTGCGCACACTTCTTTTTAATATAA [CACACA_site3938] | 9.61 |
| TTCATTAAAGTTATTACACACAGTTCTTCAACCAAA [CACACA_site7613] | 9.29 |
| AAATACATATTTAGAAGTACATTTATACATTTAATA [XGTACX_site8871] | 9.23 |
| TATATATTAAGATGCACACACAAGAAGTAATTATAA [CACACA_site5726] | 9.82 |
| ATTTTTTCTTATAAAAAAGAAAAAGAAAAAGAAAAA [CACACA_negctrl_site1216] | 8.66 |
| AGACATATTCTTTTTACACACTTGAATAAAAAATAT [CACACA_site1205] | 9.11 |
| CATTTTATAAAAACAAGTACCCAACATATATATAAT [XGTACX_site5955] | 9.38 |

Source: the supplement of paper PMC11417369
